# Sequences with one replicate were seen in a single cluster, so their values are uncertain.
# Tested on: ATP
# Assay: switch fluorescence ratio, 500 uM ATP over buffer (Cy3 cluster intensity, sum of 5 cycles each) (fold (ratio)); higher = stronger signal-on switching upon ATP binding; sequences stand for … in TCGTCGGCAGCGTCAGATGTGTATAAGAGACAGTTTTTTTTTTTTTTTTTTTTTTTTT…TC
# Conditions: aptamer strand: ATP DNA aptamer (quencher-CACCTGGGGGAGTATTGCGGAGGAAGG + anchor), 100 nM annealed; ATP concentration: 500 uM; one replicate
# In short: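 Clusters carrying Cy3-labelled switching strands on a modified Illumina MiSeq flow-cell were annealed to 100 nM quencher-labelled ATP aptamer and imaged in selection buffer. They were imaged again after 15 min with 500 uM ATP at 22 °C, over five buffer/ATP cycles with NaOH stripping and re-annealing in between. For each cluster, the fluorescence ratio is the summed Cy3 intensity of the target cycles divided by that of the buffer cycles, averaged per switch-domain sequence. Clusters outside 100-1000 RFU were left out.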
# 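Further: ATP exposure 15 min at 22 °C before imaging.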
row,Sequence,switch fluorescence ratio
1,CCAAATCACC,1.06
2,CCAAATCGGG,1.01
3,CCAAATGATG,0.974
4,CCAAATTTAC,1.32
5,CCAACAGGCG,2.06
6,CCAACGACCA,1.6
7,CCAACTCGAA,1.07
8,CCAACTCTGG,1.06
9,CCAACTGGAT,0.992
10,CCAACTGGGC,1.12
11,CCAACTTAAC,1.09
12,CCAAGAAACG,1.02
13,CCAAGCACTC,2.8
14,CCAAGCCTG,0.99
15,CCAAGGCGGA,1.04
16,CCAAGGCGTG,1.02
17,CCAAGGTAG,1.15
18,CCAAGTAGCG,0.983
19,CCAAGTCCAA,1.13
20,CCAATCGGCG,1.03
21,CCAATCGTCA,1.04
22,CCAATCGTGC,1.14
23,CCAATCTCCA,1.47
24,CCAATCTGCG,1.02
25,CCAATGCGGC,1.44
26,CCAATTAAGC,0.993

row,Sequence,switch fluorescence ratio
1,CCACAATATG,2.26
2,CCACAATTAT,1.27
3,CCACAGATGG,1.13
4,CCACATCGAC,1.39
5,CCACATTCT,0.98
6,CCACGGTCTC,1.02
7,CCACGTTCTA,1.03
8,CCACTATCGA,1.08
9,CCACTCGTCA,1.08
10,CCACTGATGG,0.994
11,CCACTGGAAG,0.99
12,CCACTGGCTG,1.08
13,CCACTGTTGC,1.06
14,CCACTTTGCG,1.03
15,CCAGAAAATA,0.984
16,CCAGATACCC,1.16
17,CCAGATACGC,1.29
18,CCAGATACTG,1.09
19,CCAGCAACGG,1.31
20,CCAGCCAGAT,1.03
21,CCAGCCTCTA,1
22,CCAGCTAGCG,0.967
23,CCAGCTTAAT,1.03
24,CCAGCTTACG,1.23
25,CCAGGACCGC,1.2
26,CCAGGACTAT,1.01

row,Sequence,switch fluorescence ratio
1,CCAGGAGAAG,1.02
2,CCAGGAGTAA,1.42
3,CCAGGATGCC,0.979
4,CCAGGCGACT,0.989
5,CCAGGCGTCT,0.99
6,CCAGGTTTGA,1.09
7,CCAGTATAGC,1.07
8,CCAGTATGCC,0.936
9,CCAGTGGCTT,0.991
10,CCAGTGTTTT,1
11,CCAGTTGGAA,1.05
12,CCAGTTTACA,0.978
13,CCAGTTTGGG,0.978
14,CCATAAAAAT,1.02
15,CCATAATTTT,1.02
16,CCATACATGG,1.01
17,CCATAGACCG,1.01
18,CCATAGGGTA,0.999
19,CCATAGGTTT,1
20,CCATATTTTC,1.02
21,CCATCAAAGT,1.01
22,CCATCCATCT,0.978
23,CCATCGGACT,0.978
24,CCATCGGGAA,1
25,CCATCTAATT,1.03
26,CCATCTTAGG,1.01

row,Sequence,switch fluorescence ratio
1,CCATGAACCG,1.09
2,CCATGACTGG,1.01
3,CCATGATAGG,1.03
4,CCATGATGCT,0.971
5,CCATGTATTG,0.963
6,CCATTAATAC,3.88
7,CCATTAGAGC,0.949
8,CCATTATTCG,0.942
9,CCATTCTTAT,0.973
10,CCATTGCACA,1.41
11,CCATTGGCGC,1.02
12,CCATTTAAAT,1.01
13,CCATTTCTCG,1
14,CCCAAAAACA,1.19
15,CCCAACCTAC,1.49
16,CCCAATCCCG,1.09
17,CCCACATGGT,2.31
18,CCCACGGATT,1.04
19,CCCACTATAA,1.1
20,CCCACTGTGG,1.03
21,CCCAGACGCT,1.2
22,CCCAGAGATC,1.09
23,CCCAGTGCGG,1.13
24,CCCAGTTACG,1.04
25,CCCATATATT,1.02
26,CCCATCTCTT,1.04

row,Sequence,switch fluorescence ratio
1,CCCATGGTTC,1.02
2,CCCATTCTTT,1.02
3,CCCATTGGAC,1.02
4,CCCCAAGGTC,3.86
5,CCCCAATTCA,1.09
6,CCCCCACCAG,1.66
7,CCCCCCATCA,1.03
8,CCCCCTAACT,1.08
9,CCCCCTTTGG,1.75
10,CCCCGAAGTG,2.24
11,CCCCGACCGA,1.2
12,CCCCGGGCCC,1.22
13,CCCCGGGGGC,1.84
14,CCCCGGTTG,2.67
15,CCCCGTGGAT,1.28
16,CCCCTAACTC,1.17
17,CCCCTCAAAA,1.14
18,CCCCTGCCAA,4.72
19,CCCCTTGTTG,1.32
20,CCCGAAAGTG,1.19
21,CCCGACTCAT,1.46
22,CCCGAGCTA,2.95
23,CCCGATGGGA,0.951
24,CCCGCACGCG,1.28
25,CCCGGACTTC,1.05
26,CCCGGCGGCT,1.07

row,Sequence,switch fluorescence ratio
1,CCCGGGAGGA,1.02
2,CCCGGGCACC,1.05
3,CCCGGGCTGG,1.03
4,CCCGGGGT,1.25
5,CCCGGTAAA,1
6,CCCGGTATTA,1.02
7,CCCGGTCTGA,1.01
8,CCCGTATACC,1.98
9,CCCGTGCCCA,1.02
10,CCCGTGGTGG,1.03
11,CCCGTGGTTA,1.02
12,CCCGTTAAAG,1.01
13,CCCGTTCGT,1
14,CCCGTTTGTT,0.938
15,CCCTAAAGGT,1.09
16,CCCTACCGGC,1.05
17,CCCTAGGCGG,1.12
18,CCCTATGGAG,0.995
19,CCCTCAAAAG,1.11
20,CCCTCAACAA,2.27
21,CCCTCCTCTT,1.12
22,CCCTCGTCCG,1.19
23,CCCTGAGAGG,1.03
